Results: PubChem BioAssay AID493208 (National Center for Advancing Translational Sciences (NCATS), 2011)
Hit rate of the full screen: of about 44,000 compounds, about 340 (0.77%) were called active. About 5% were inconclusive and are not listed. Calls follow the shape of the dose curve; as a rule, active = well fitted inhibition curve with a large enough effect; inconclusive = small, poorly fitted or top-dose-only effect; inactive = flat fitted curve, though single readings scatter. Some of the results follow.

Experiment: Acumen qHTS Assay for Inhibitors of the mTORC1 Signaling Pathway in MEF (Tsc2-/-, p53-/-) Cells: Sytravon;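 also: plate controls were DMSO for no effect and rapamycin for full effect; nearly all actives have a fitted effect of over 50% in size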
Settings: phospho-rpS6 immunofluorescence/PI, 24 h; series mostly up to 38.3 µM; activity change, negative = inhibition: at the top concentration
Outline: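 Immunofluorescence of rpS6 phosphorylation in Tsc2-/-, p53-/- MEFs after 24 h compound exposure, normalized to propidium iodide signal. Activity is expressed as % positive cells, thresholded with 7.5 nM rapamycin.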

Activity change, negative = inhibition, inactive:
CC1CCC(NC(=O)c2ccc3c(c2)N(Cc2ccccc2)C(=O)c2ccccc2S3(=O)=O)CC1 (stereo unspecified) -2.53%
CCCCn1c(=N)c(S(=O)(=O)c2ccc(Cl)cc2)cc2c(=O)n3cccc(C)c3nc21 -14%
CC(C)(C)OC(=O)N1CCC(c2c(C(=O)NCc3ccccc3)cnn2-c2ccccc2)CC1 3.13%
CCc1ccc(CNC(=O)c2cc3c(=O)n(CC)c4ccccc4c3s2)cc1 -7.38%
Cc1cccc(Nc2c(-c3cccs3)nc3nc(C)cc(C)n23)c1 -19%
O=C(NC(=O)c1ccccc1)Nc1ccc(-n2nc(C(F)(F)F)cc2C(F)(F)F)cc1 -2.02%
COc1ccc(NC(=O)CN(C)S(=O)(=O)c2ccc3c(c2)CCC(=O)N3)c(OC)c1 -14.1%
COc1ccc(OC)c(NC(=O)Cn2c(=O)n(CC3CCCO3)c(=O)c3cc(OC)c(OC)cc32)c1 (stereo unspecified) -19.3%
CCOc1ccccc1CNC(=O)CN1C(=O)CSc2ccc(S(=O)(=O)N3CCOCC3)cc21 9.98%
CCc1ccc(NC(=O)CSc2nc3c(sc4ccccc43)c(=O)n2CCCOC)cc1 -5.54%
Cc1ccc(CNC(=O)c2cnc(N3CCCCC3)c3ccccc23)cc1 -0.0959%
O=C(c1ccc2c(c1)CCN2S(=O)(=O)c1ccccc1)N1CCN(c2cccc(Cl)c2)CC1 -9.71%
CCOC(=O)CNc1nc2ccccc2n2c(C)nnc12 -0.369%
Cc1ccc(C)c(OCCn2cc(C(=O)c3cccs3)c3ccccc32)c1 -0.0726%
O=[N+]([O-])c1ccc(S(=O)(=O)NCc2nc3cccnc3n2Cc2ccccc2Cl)cc1 -5.16%
Cc1cccc(C(=O)N2CCc3cc(CNC(=O)c4ccc(Br)o4)ccc32)c1 -4.35%
COc1ccc(C)cc1NC(=O)Cn1c(=O)nc(-c2ccccc2F)c2cc(Cl)ccc21 0%
COC(=O)c1cc(NC(=O)C2CCCN(S(=O)(=O)c3c(C)n[nH]c3C)C2)cc(C(=O)OC)c1 (stereo unspecified) 0.385%
O=c1nc2c(-c3ccc(F)cc3Cl)n[nH]n2c2ccccc12 0.674%
Cc1c(C(=O)OCC2CCCCC2)[nH]c2c1C(=O)CC(c1ccc(F)cc1)C2 (stereo unspecified) 1.15%
N#Cc1cccc(Nc2ncnc3c2cnn3-c2cccc(Cl)c2)c1 -13%
Cc1ccc(Cl)cc1-n1ncc2c(NC3CCCCC3)ncnc21 -0.334%
Cc1cccc2sc(N3CCN(C(=O)CS(=O)(=O)c4ccc(F)cc4)CC3)nc12 -5.86%
O=C(CSc1nncn2c1cc1occc12)Nc1ccccc1C(F)(F)F -22.5%
CCc1ccccc1NC(=O)CN(c1cccc(C)c1C)S(C)(=O)=O 2.08%
Cc1ccc(C(=O)O)cc1-n1c(C)ccc1-c1ccccc1 4.26%
CCOC(=O)c1c(C)[nH]c(CCC(=O)Nc2c(Cl)cc(OC)cc2OC)c1C -0.689%
CCCc1nc2nc(C)c(NS(=O)(=O)c3ccc(F)cc3)c(=O)n2[nH]1 -0.0824%
Cc1cc(C(=O)N2CCN(c3ccc(F)cc3)CC2)c2c(C)nn(-c3cccc(Cl)c3C)c2n1 -0.196%
CCc1ccc(S(=O)(=O)c2cnc3ccc(OC)cc3c2N2CCCC(C)C2)cc1 (stereo unspecified) -4.88%
COc1cc(OC)c2c(C)c(CC(=O)NCCc3ccccc3OC)c(=O)oc2c1 0.324%
COc1ccc(CNC(=O)Cn2c(=O)nc(-c3ccccc3F)c3cc(Cl)ccc32)cc1OC 13.6%
COC(=O)c1cccc(Nc2c(-c3ccc(OC)cc3)nc3nc[nH]n23)c1 -7.85%
CCOC(=O)c1ccc(NC(=O)C(CC)Sc2nnc3c4ccccc4n(C)c3n2)cc1 (stereo unspecified) 3.65%
Cc1ccc(C)c(NC(=O)Cn2nnc(C(=O)NCCc3ccccc3)c2N)c1 4.04%
CCOC(=O)c1cc(NC(=O)c2ccccc2)c(=O)n2c1oc1ccc(Cl)cc12 -6.41%
CCOc1ccccc1CNS(=O)(=O)c1ccc(-c2cnc(C3CC3)o2)cc1 -9.55%
COc1ccc(-c2noc(-c3nnn(-c4ccc(C)cc4C)c3C)n2)cc1 0%
COc1ccc(NC(=O)CSC2=Nc3ccccc3C3=NC(CCC(=O)NC4CCCCC4)C(=O)N23)cc1Cl (stereo unspecified) 3.23%
COc1ccc(S(=O)(=O)c2cn(C)c3cc(N4CCCCCC4)c(F)cc3c2=O)cc1 -7.13%
O=C(Nc1cc(F)ccc1F)C1CCN(C(=O)c2cnn(-c3ccccc3)c2-n2cccc2)CC1 2.94%
Cc1ccc(NC(=O)CSc2nncn2C)c(C)c1 0.74%
COc1ccc(Cl)c2sc(NC(=O)c3ccc(S(=O)(=O)N4CCCC4)cc3)nc12 6.65%
COc1ccccc1NC(=O)CSCc1cc(=O)c2cccc(Cl)c2[nH]1 0.278%
COc1ccc(OC)c(C2CC(=O)Nc3c2c(=O)n(C)c2ncnn32)c1 (stereo unspecified) 1.09%
O=C(CSC1=Nc2ccccc2C2=NC(Cc3ccccc3)C(=O)N12)Nc1cccc(Cl)c1 (stereo unspecified) 0%
COc1ccccc1Cn1c(C2CC(=O)N(c3ccccc3OC)C2)nc2ccccc21 (stereo unspecified) 0.958%
CCc1ccc2occ(CC(=O)Nc3c(C(=O)c4ccccc4)oc4ccccc34)c2c1 1.05%
CCOC(=O)c1c(-c2ccccc2)oc2ccc(NS(=O)(=O)c3ccc(C)cc3)cc12 -13.1%
Cc1ccc(CNC(=O)c2cc3sc(Cl)cc3n2C)cc1 -1.35%
CCOC(=O)c1c(C)oc2ccc(N(C(=O)c3ccncc3)S(=O)(=O)c3ccc(F)cc3C)cc12 -4.71%
Cc1ccc2nc(-c3ccc(Cl)c(NC(=O)COc4ccc([N+](=O)[O-])cc4)c3)oc2c1 -1.5%
Cc1cccc(CS(=O)(=O)Cc2ccc(C(=O)NCc3ccc(F)cc3)o2)c1 5.91%
COc1cccc(NC(=O)c2cnc(SCC(=O)N3CCCc4ccccc43)n(C)c2=O)c1 -11%
CCN(C(=O)c1cc2c(=O)oc3ccccc3c2s1)c1ccccc1F -8.79%
Cc1noc(-c2ccc(-c3noc(-c4ccc(Cl)cc4)n3)cc2)n1 0.363%
Cc1ccc(C)c(CN2CCCN(Cc3ccccc3C)S2(=O)=O)c1 0.681%
Cc1cc(C)cc(NC(=O)CN2C(=O)c3ccccc3Sc3ccc(C(=O)N4CCCC4)cc32)c1 -9.71%
O=C(CN1C(=O)CCc2cc(Br)ccc21)Nc1ccc(OC(F)(F)F)cc1 -10.3%
CCOC(=O)c1ccc(Nc2c(-c3ccc(N(C)C)cc3)nc3nc[nH]n23)cc1 -11%
COc1cccc(CNC(=O)c2nn(C)c3c2CSc2ccccc2-3)c1 1.55%
